The structures appear in SMILES notation. Counter-ions that a name gives are not always drawn. The list shows a part of the results. Most values come without repeats; read them as rough.

For one assay, the system named is OVCAR4. The assay can be described thus: log2 surviving fraction (library drug vs vehicle, or drug + carboplatin vs carboplatin alone; relative to plate median); ovarian cancer lines: OVCAR4 is platinum-sensitive and Ov4Carbo platinum-resistant; higher = more cell survival. Conditions: library drug concentration 10 µM, 7 days.
The next assay relates to Ov4Carbo. Described as above. Particulars: library drug concentration 10 µM, 7 days.

In the case of `CNCC[C@H](Oc1cccc2ccccc12)c1cccs1` [Duloxetine HCl (Cymbalta)], the log2 surviving fraction in the assay with OVCAR4 (carboplatin co-treatment 0 µM) was -2.84; with OVCAR4 (carboplatin co-treatment 5 µM) it was -1.72; in the assay on Ov4Carbo (carboplatin co-treatment 0 µM), -3.64; in the assay with Ov4Carbo (carboplatin co-treatment 5 µM), -3.87.

`O=S(=O)(O)CCS` [Mesna (Uromitexan, Mesnex)]: the log2 surviving fraction was 1.13 in the assay with OVCAR4 (carboplatin co-treatment 0 µM), 0.53 with OVCAR4 (carboplatin co-treatment 5 µM), 0.674 in the assay on Ov4Carbo (carboplatin co-treatment 0 µM) and 0.462 in the assay on Ov4Carbo (carboplatin co-treatment 5 µM).

As for `CC(=O)Nc1c(I)c(C(=O)N[C@H]2C(O)O[C@H](CO)[C@@H](O)[C@@H]2O)c(I)c(N(C)C(C)=O)c1I` (some centres not stated) [Metrizamide], the log2 surviving fraction in the assay on OVCAR4 (carboplatin co-treatment 0 µM) came to 1.33; in the assay on OVCAR4 (carboplatin co-treatment 5 µM) it was 1.03; with Ov4Carbo (carboplatin co-treatment 0 µM), 1.1; in the assay on Ov4Carbo (carboplatin co-treatment 5 µM) it was 1.49.

Regarding `CCCC(C(=O)OCCN(CC)CC)(c1ccccc1)c1ccccc1` [Proadifen HCl], the log2 surviving fraction in the assay on OVCAR4 (carboplatin co-treatment 0 µM) was -9.56; with OVCAR4 (carboplatin co-treatment 5 µM), -1.63; with Ov4Carbo (carboplatin co-treatment 0 µM), -2.16; in the assay on Ov4Carbo (carboplatin co-treatment 5 µM), -2.3.

For the molecule `CC1(C)O[C@@H]2C[C@H]3[C@@H]4CCC5=CC(=O)C=C[C@]5(C)[C@@]4(F)[C@@H](O)C[C@]3(C)[C@]2(C(=O)CO)O1` [Triamcinolone Acetonide], the log2 surviving fraction in the assay with OVCAR4 (carboplatin co-treatment 0 µM) stood at 0.00804; in the assay on OVCAR4 (carboplatin co-treatment 5 µM), 0.0103; in the assay on Ov4Carbo (carboplatin co-treatment 0 µM) it was 0.283; in the assay with Ov4Carbo (carboplatin co-treatment 5 µM), 0.132.

As to `COc1cccc(N(C)C(=S)Oc2ccc3c(c2)CCCC3)n1` [Liranaftate], the log2 surviving fraction in the assay with OVCAR4 (carboplatin co-treatment 0 µM) is -0.138; with OVCAR4 (carboplatin co-treatment 5 µM) it was 1.17; in the assay with Ov4Carbo (carboplatin co-treatment 0 µM), -0.406; with Ov4Carbo (carboplatin co-treatment 5 µM) it was -0.56.

Consider `C[C@@H]1C/C=C/C=C/C=C/C=C/[C@H](O[C@@H]2O[C@H](C)[C@@H](O)[C@H](N)[C@@H]2O)C[C@@H]2O[C@](O)(C[C@@H](O)C[C@H]3O[C@@H]3/C=C/C(=O)O1)C[C@H](O)[C@H]2C(=O)O` [Natamycin (Pimaricin)], for which the log2 surviving fraction in the assay with OVCAR4 (carboplatin co-treatment 0 µM) was 0.736; in the assay on OVCAR4 (carboplatin co-treatment 5 µM), -0.311; in the assay on Ov4Carbo (carboplatin co-treatment 0 µM) it was -0.353; in the assay with Ov4Carbo (carboplatin co-treatment 5 µM), 0.277.

On to `CC(C)OC(=O)C(C)(C)Oc1ccc(C(=O)c2ccc(Cl)cc2)cc1` [Fenofibrate (Tricor, Trilipix)], for which the log2 surviving fraction in the assay with OVCAR4 (carboplatin co-treatment 0 µM) is -2.62; with OVCAR4 (carboplatin co-treatment 5 µM), -1.19; in the assay on Ov4Carbo (carboplatin co-treatment 0 µM), -2.26; in the assay on Ov4Carbo (carboplatin co-treatment 5 µM) it was 0.275.
